In a collection of fitness landscapes (doi:10.1016/j.celrep.2020.107928):
Whole data set: some 81,000 sequences, median “one-hybrid fitness for binding parS DNA” near -0.17, cut for the highest 2% near 0.51. The list shows a part of the results.

B1: Caulobacter ParB omega fusion; a variant is named by its letters at X, in order, B8GW30 (parent)
chain: MESVVVGEPGMSEGRRGLGRGLSALLGEVDAAPAQAPGEQLGGSREAPIEILQRNPDQPRRTFREEDLEDLSNSIREKGVLQPILVRPSPDTAGEYQIVAGERAWRAAQRAGLKTVPIMVRELDDLAVLEIGIIENVQRADLNVLEEALSYKVLMEKFERTQENIAQTIGKSXSHVANXMRLLXLPDEVQSYLVSGELTAXHARAIAAAADPVALAKQIIEGGLSVRETEALARKAPNLSAGKSKGGRPPRVKDTDTQALESDLSSVLGLDVSIDHRGSTGTLTITYATLEQLDDLCNRLTRGI

Variants of: B1
Assay: one-hybrid fitness for binding parS DNA (scaled: cognate 1, non-cognate 0); higher = stronger binding
Conditions: with parS DNA site
In short: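 Selection: bacterial one-hybrid in E. coli USO, HIS3 reporter with the site 19 bp from the promoter, 48 hours at 37°C on M9-minus-histidine plus 0.1 mM IPTG and 5 mM 3-AT. Libraries were Caulobacter ParB with four randomised specificity codons, sequenced on Illumina before and after selection. Fitness is the rescaled log change in variant-to-wild-type read ratio, anchored to the cognate and non-cognate sites.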

Variant | one-hybrid fitness for binding parS DNA
FIKK | ≤ 0.2
FGTK | ≤ 0.2
TGSC | ≤ 0.2
DNEY | ≤ 0.2
HLRL | ≤ 0.2
GWHT | ≤ 0.2
KRQG | ≤ 0.2
VHGS | ≤ 0.2
PARQ | ≤ 0.2
ALWT | ≤ 0.2
RMST | 0.945
RFSC | 0.935
RAAI | ≤ 0.2
FRSF | ≤ 0.2
YTAS | ≤ 0.2
SQNW | ≤ 0.2
QQKN | ≤ 0.2
NMPR | ≤ 0.2
SPMM | ≤ 0.2
CGYT | ≤ 0.2
GAAS | ≤ 0.2
RPGI | ≤ 0.2
STAC | ≤ 0.2
LTIM | ≤ 0.2

Variant | one-hybrid fitness for binding parS DNA
YDDL | ≤ 0.2
LCKM | ≤ 0.2
NHTN | ≤ 0.2
PGVN | ≤ 0.2
CVLH | ≤ 0.2
ILGR | ≤ 0.2
YSLF | ≤ 0.2
EGLT | ≤ 0.2
WCGS | ≤ 0.2
TGAC | ≤ 0.2
VLCC | ≤ 0.2
NFRE | ≤ 0.2
RQGE | ≤ 0.2
PSRL | ≤ 0.2
TMTC | ≤ 0.2
VWIQ | ≤ 0.2
HHIV | ≤ 0.2
CWAR | ≤ 0.2
APRL | ≤ 0.2
AIMV | ≤ 0.2
FSQC | ≤ 0.2
ALNE | ≤ 0.2
CMMC | ≤ 0.2
PDDE | ≤ 0.2

Variant | one-hybrid fitness for binding parS DNA
CVKY | ≤ 0.2
GCIF | ≤ 0.2
NFWT | ≤ 0.2
IDCY | ≤ 0.2
TFRT | ≤ 0.2
QNNY | ≤ 0.2
CNLM | ≤ 0.2
PQNN | ≤ 0.2
KIMG | ≤ 0.2
VDRC | ≤ 0.2
VVGV | ≤ 0.2
IKQG | ≤ 0.2
SSYT | ≤ 0.2
TNRF | ≤ 0.2
TDNW | ≤ 0.2
AAYS | ≤ 0.2
RSAG | 0.992
QVGD | ≤ 0.2
TCNG | ≤ 0.2
PCPE | ≤ 0.2
NTGG | ≤ 0.2
GGRW | ≤ 0.2
WMVR | ≤ 0.2
TIQV | ≤ 0.2

Variant | one-hybrid fitness for binding parS DNA
FEPR | ≤ 0.2
KYHG | ≤ 0.2
YGHG | ≤ 0.2
QKRS | ≤ 0.2
AAKR | ≤ 0.2
TKDM | ≤ 0.2
TKDH | ≤ 0.2
RLIV | ≤ 0.2
WSPP | ≤ 0.2
YLLC | ≤ 0.2
SSSL | ≤ 0.2
PNHL | ≤ 0.2
GGPE | ≤ 0.2
YTVR | ≤ 0.2
MLGG | ≤ 0.2
YDNG | ≤ 0.2
IKTN | ≤ 0.2
TDTF | ≤ 0.2
EYDG | ≤ 0.2
QLSI | ≤ 0.2
LVSI | ≤ 0.2
CNVR | ≤ 0.2
ACSN | ≤ 0.2
QHMD | ≤ 0.2

Variant | one-hybrid fitness for binding parS DNA
PAKV | ≤ 0.2
ESSC | ≤ 0.2
SQEV | ≤ 0.2
GPMM | ≤ 0.2
IMRS | ≤ 0.2
HPTI | ≤ 0.2
GRWT | ≤ 0.2
NNLD | ≤ 0.2
ALTS | ≤ 0.2
RTPP | ≤ 0.2
KING | ≤ 0.2
IYCG | ≤ 0.2
GRPH | ≤ 0.2
LDQD | ≤ 0.2
QKQA | ≤ 0.2
SPSG | ≤ 0.2
VRTM | ≤ 0.2
THSG | ≤ 0.2
KRIG | ≤ 0.2
WMSR | ≤ 0.2
HTTH | ≤ 0.2
GMWT | ≤ 0.2
PGDH | ≤ 0.2
RSVP | ≤ 0.2

Variant | one-hybrid fitness for binding parS DNA
PESK | ≤ 0.2
GHSM | ≤ 0.2
DRPG | ≤ 0.2
KWTS | ≤ 0.2
LMPT | ≤ 0.2
MLQC | ≤ 0.2
RLRF | 0.282
KFHT | ≤ 0.2
YPRA | ≤ 0.2
HAMR | ≤ 0.2
YCDG | ≤ 0.2
YKMT | ≤ 0.2
DSHV | ≤ 0.2
TNEY | ≤ 0.2
RTKP | ≤ 0.2
YTGS | ≤ 0.2
RFPV | ≤ 0.2
YTAR | ≤ 0.2
DSIQ | ≤ 0.2
PQSI | ≤ 0.2
LATM | ≤ 0.2
HKAT | ≤ 0.2
DWHG | ≤ 0.2
EPIG | ≤ 0.2

Variant | one-hybrid fitness for binding parS DNA
RDTC | ≤ 0.2
YRVT | ≤ 0.2
RVIC | 0.846
NGQK | ≤ 0.2
ALVM | ≤ 0.2
SHEI | ≤ 0.2
TKIH | ≤ 0.2
CFTK | ≤ 0.2
FATM | ≤ 0.2
CPSL | ≤ 0.2
RWWL | ≤ 0.2
PAWL | ≤ 0.2
MVSI | ≤ 0.2
TNTC | ≤ 0.2
MEYL | ≤ 0.2
GLPQ | ≤ 0.2
QQYA | ≤ 0.2
QLAI | ≤ 0.2
QDAG | ≤ 0.2
PGMQ | ≤ 0.2
ASTW | ≤ 0.2
AAIT | ≤ 0.2
WMQC | ≤ 0.2
FTQF | ≤ 0.2

Variant | one-hybrid fitness for binding parS DNA
RSHV | ≤ 0.2
MTCT | ≤ 0.2
WTVH | ≤ 0.2
TLIM | ≤ 0.2
DNCS | ≤ 0.2
QRAL | ≤ 0.2
ANHL | ≤ 0.2
YHET | ≤ 0.2
PHNQ | ≤ 0.2
RWNC | 0.79
PLYF | ≤ 0.2
PIVS | ≤ 0.2
YDPR | ≤ 0.2
NWQV | ≤ 0.2
TYLF | ≤ 0.2
CAFS | ≤ 0.2
VYLA | ≤ 0.2
TSIK | ≤ 0.2
YQCR | ≤ 0.2
QSLW | ≤ 0.2
RDFT | ≤ 0.2
TWVL | ≤ 0.2
IWQG | ≤ 0.2
YPHR | ≤ 0.2

Variant | one-hybrid fitness for binding parS DNA
RWHM | ≤ 0.2
NCTG | ≤ 0.2
SNKW | ≤ 0.2
AMII | ≤ 0.2
FGCL | 0.26
PGRC | ≤ 0.2
PDWT | ≤ 0.2
TMAR | ≤ 0.2
FHLD | ≤ 0.2
QVLP | ≤ 0.2
RPFT | ≤ 0.2
HRAM | ≤ 0.2
RLVM | 0.295
QLNK | ≤ 0.2
WGAE | ≤ 0.2
TDHG | ≤ 0.2
APAF | ≤ 0.2
PRAP | ≤ 0.2
FQAC | ≤ 0.2
IACG | ≤ 0.2
FWST | ≤ 0.2
CPRC | ≤ 0.2
DTGI | ≤ 0.2
NHGC | ≤ 0.2

Variant | one-hybrid fitness for binding parS DNA
AIDE | ≤ 0.2
ACRY | ≤ 0.2
DCVS | ≤ 0.2
QQRF | ≤ 0.2
QCQK | ≤ 0.2
PSDP | ≤ 0.2
AMNT | ≤ 0.2
GPYT | ≤ 0.2
RQLG | 0.982
ISTC | ≤ 0.2
SPRL | ≤ 0.2
KRRC | ≤ 0.2
LVKY | ≤ 0.2
SHFL | ≤ 0.2
RGVV | ≤ 0.2
FYLR | ≤ 0.2
QAFT | ≤ 0.2
EGAD | ≤ 0.2
AYHN | ≤ 0.2
ASMC | ≤ 0.2
QLNV | ≤ 0.2
MQLN | ≤ 0.2
CYTT | ≤ 0.2
RDAA | ≤ 0.2

Variant | one-hybrid fitness for binding parS DNA
WIMT | ≤ 0.2
GHRF | ≤ 0.2
GVAS | ≤ 0.2
KKVF | ≤ 0.2
YPDV | ≤ 0.2
NHVC | ≤ 0.2
GCLG | ≤ 0.2
HLNV | ≤ 0.2
RMKC | 0.849
QDAT | ≤ 0.2
QPEC | ≤ 0.2
HLDM | ≤ 0.2
IHHG | ≤ 0.2
RALK | ≤ 0.2
RQDM | 0.324
PTKC | ≤ 0.2
FRGL | ≤ 0.2
CYGT | ≤ 0.2
AFDT | ≤ 0.2
RWAT | 0.614
DWDG | ≤ 0.2
DYKY | ≤ 0.2
NWES | ≤ 0.2
PLGF | ≤ 0.2

Variant | one-hybrid fitness for binding parS DNA
SEGW | ≤ 0.2
HDTG | ≤ 0.2
VWKD | ≤ 0.2
RYRI | ≤ 0.2
NFNV | ≤ 0.2
DIYS | ≤ 0.2
KSCK | ≤ 0.2
YPYS | ≤ 0.2
EMRQ | ≤ 0.2
FKHI | ≤ 0.2
PTLR | ≤ 0.2
STWG | ≤ 0.2
RSGR | ≤ 0.2
IKTT | ≤ 0.2
NYNI | ≤ 0.2
GWWL | ≤ 0.2
CEFG | ≤ 0.2
LFLY | ≤ 0.2
EPRN | ≤ 0.2
MWSC | ≤ 0.2
FNLI | ≤ 0.2
HRLC | 0.225
YDKC | ≤ 0.2
ICCL | ≤ 0.2

Variant | one-hybrid fitness for binding parS DNA
ATGK | ≤ 0.2
LCCL | ≤ 0.2
TNPR | ≤ 0.2
VIKT | ≤ 0.2
QIWS | ≤ 0.2
RQQH | ≤ 0.2
GWQT | ≤ 0.2
AALA | ≤ 0.2
CWTE | ≤ 0.2
RTCK | ≤ 0.2
QESG | ≤ 0.2
GALG | ≤ 0.2
RAEM | 0.246
LDHT | ≤ 0.2
FALY | ≤ 0.2
NIIG | ≤ 0.2
PAED | ≤ 0.2
HWQT | ≤ 0.2
